Measurements: PubChem BioAssay AID463173 (ICCB-Longwood Screening Facility, Harvard Medical School, 2010)
Hit rate of the full screen: of about 52,000 compounds, about 1,700 (3.3%) were called active. No stated cut-off is given here; in the data, active means survival mostly below about 52% (no sharp cut-off); inactive means mostly above about 56%. Some of the results follow.

test system: Wild type; assay: S. aureus survival, RN4220 and DeltatarO strains – OD600, teichoic acid synthesis inhibitors, primary screen (AID 463173); details: S. aureus RN4220 wild type/DeltatarO growth, OD600, 18 h, active compounds read low, screened at 18.75 µg/mL (by protocol)

SMILES	survival
CCOCCCNC(=O)C1CCCN(Cc2nc(-c3ccc(CC)cc3)oc2C)C1 (stereo not given)	inactive: 84%
CC(C)NC(=O)Cn1cc(C(=O)C(C)C)c2ccccc21	inactive: 96%
CCOC(=O)N1CCN(S(=O)(=O)N2CCCC(C(=O)NCc3cc(OC)ccc3OC)C2)CC1 (stereo not given)	inactive: 81%
COc1ccc(N2CC(NC(=O)/C=C\c3ccc(OC)c(OC)c3)CC2=O)cc1 (stereo not given)	inactive: 65%
CCc1ccc(-n2c(SC(CC)C(=O)N(CC)CC)nc3n[nH]c(C)c3c2=N)cc1 (stereo not given)	inactive: 121%
Cc1nc(CC(=O)Nc2ccc(C)c(C)c2)cs1	inactive: 80%
CCn1ccc2cc(S(=O)(=O)N3CCCN(C(=O)Nc4ccccc4OC)CC3)ccc21	inactive: 66%
CCc1ccc(OCC(=O)N(Cc2cccs2)c2ccc(Cl)cc2)cc1	inactive: 83%
COc1ccc(N2CCN(C(CNC(=O)CC(C)C)c3ccc4c(c3)OCO4)CC2)cc1 (stereo not given)	inactive: 83%
CCc1cccc(CC)c1NC(=O)Cn1nnc2sc(-c3ccccc3)cc2c1=O	inactive: 87%
CCCC(=O)Nc1ccc(Cl)c(NC(=O)c2cccnc2Cl)c1	inactive: 114%
CCCCOc1ccc(C2=NC(c3ccncc3)=Nc3ccc(Br)cc3N2)cc1	active: -4%
CS(=O)(=O)N(CC(=O)N1CCN(Cc2ccc3c(c2)OCO3)CC1)Cc1ccccc1	inactive: 102%
Cc1ccc(-c2nc3ccc(Cl)cn3c2Nc2ccc3c(c2)OCCO3)o1	inactive: 88%
COc1ccc(-c2nc(CS(=O)CC(=O)NCc3ccc(F)cc3)c(C)o2)cc1OC (stereo not given)	inactive: 80%
Cc1c(Cl)cccc1-n1ncc(C(=O)N2CCc3ccccc3C2)c1C1CCN(C(=O)OC(C)(C)C)CC1	inactive: 80%
Cc1cccc2cc(C#N)c(SCC(=O)NCC3CCCO3)nc12 (stereo not given)	inactive: 103%
CCOc1ccccc1N(CC)C(=O)Nc1cn(C)c(=O)c2ccccc12	inactive: 78%
COc1ccc(OCC(=O)Nc2ccc(C(=O)OCc3cc(=O)n4nc(C)sc4n3)cc2)cc1	inactive: 119%
CCCCCn1c(=O)[nH]c2cc(C(=O)N3CCN(c4ccccc4)CC3)ccc2c1=O	inactive: 85%
Cc1ccc(/C=C/c2onc(C)c2S(=O)(=O)N2CCC(C(=O)N3CC(C)Oc4ccccc43)CC2)cc1 (stereo not given)	inactive: 135%
CC1=C(C#N)C(=O)NC(C)(C)C1	inactive: 108%
CCc1ccc(NC(=O)CC2C(=O)N(c3cccc(OC)c3)C(=O)N2Cc2ccco2)cc1 (stereo not given)	inactive: 19%

SMILES	survival
CCOc1ccccc1NC(=O)Nc1nnc(N(C)Cc2ccccc2)s1	inactive: 84%
COc1ccc2c(c1)cc1c(=O)n(CC(=O)NC3CCCCC3)nc(C)n12	inactive: 79%
Cc1ccc(NC(=O)c2oc3ccccc3c2NC(=O)Cc2cccs2)cc1	inactive: 57%
CC(=O)N1CCC(N(C(=O)Nc2ccc(C)c(F)c2)C(C)C)CC1	inactive: 83%
COc1cc(Cl)c(NS(=O)(=O)c2ccc3c(c2)CC(C)N3C(=O)C2CCC2)c(OC)c1 (stereo not given)	inactive: 99%
Cc1ccc(C(Nc2ccccn2)c2ccc3cccnc3c2O)cc1 (stereo not given)	active: 6%
CSc1nnc(C2CCCN2)n1C (stereo not given)	inactive: 102%
COc1ccccc1NC(=O)CCS(=O)(=O)c1ccc2nc(C)sc2c1	inactive: 88%
COc1cc(Cl)c(C)cc1NC(=O)CCc1c(C)nc2cc(-c3cccc(F)c3)nn2c1C	inactive: 77%
CCc1c(C)sc2c1CCN(C(=O)Nc1ccccc1C(F)(F)F)C2c1ccccc1 (stereo not given)	inactive: 79%
Cc1ccccc1NC(=O)c1c(NC(=O)C(C)Oc2cccc(Cl)c2)sc2c1CCCC2 (stereo not given)	inactive: 61%
CCn1c(C(=O)N2CCCC(C(=O)NCCCOC)C2)cc2sccc21 (stereo not given)	inactive: 84%
CC1CC(C)(C)NC(=S)O1 (stereo not given)	inactive: 110%
O=C(CCn1cnc2onc(-c3ccc(F)cc3)c2c1=O)N1CCN(c2ccc(F)cc2)CC1	inactive: 98%
COc1ccccc1CNC(=O)CC1N=C2c3ccccc3N=C(SCC(=O)Nc3ccc(F)cc3)N2C1=O (stereo not given)	inactive: 140%
O=C(c1nc(-c2ccc(Cl)cc2)n2c1CCCCC2)N1CCN(c2ccccc2F)CC1	inactive: 68%
COc1cc(NC(=O)c2c(-c3ccc(C)cc3)nnc3ccccc23)cc(OC)c1OC	inactive: 97%
Cc1oc2c(c1C(=O)Nc1cccc(Br)c1)C1=NCCN1C=N2	inactive: 83%
Cc1cc2cc(C(c3nnnn3Cc3ccco3)N3CCN(C(=O)c4ccco4)CC3)c(=O)[nH]c2cc1C (stereo not given)	inactive: 110%
COc1ccccc1Nc1nn2c(=O)c3ccc(C(=O)N4CCC(C)CC4)cc3nc2s1	inactive: 64%
COc1ccc(S(=O)(=O)Nc2cccc(-c3ccc(N4CCOCC4)nn3)c2)cc1F	inactive: 63%
O=C(Cn1nc(-c2ccccc2)ccc1=O)NCc1ccc(F)cc1Cl	inactive: 129%
